Data taken from PubChem BioAssay AID686971 (National Center for Advancing Translational Sciences (NCATS), 2013).
Among all 360,000 compounds or so, about 7,500 (2.1%) were called active. Roughly 8% stayed inconclusive and do not appear here. Calls come from the whole dose curve; as a rule, active = well fitted cell-killing curve with a large enough effect; inconclusive = small, poorly fitted or top-dose-only effect, or effect the other way, or another doubt; inactive = no such curve, though single readings can be large or run the other way. The entries are a selection whose mix differs from that of the whole data set.

Experiment: qHTS for induction of synthetic lethality in tumor cells producing 2HG: qHTS for the HT-1080-IDH1KD cell line
Details: HT-1080 IDH1 knockdown viability, ATP luminescence, 48 h; series mostly up to 46.1 µM; activity, negative = toxicity: at the top concentration
From the text: Unbiased genomic sequencing for 22 glioma genomes found recurrent mutation of IDH1 on chromosome 2q33, a gene encoding the cytosolic isoform of IIDH1 associated with the tri-carboxylic acid cycle (TCA) that catalyzes the oxidative decarboxylation of isocitrate, yielding alpha-ketoglutarate and CO2 via NADP+ to NADPH conversion. Subsequent studies confirmed the recurrent IDH mutations in up to 70% of secondary gliomas and in 10% of AML cases. In addition, the somatic mutation of cancer-associated IDH1 is a point mutation resulting in various amino-acid substituents at Arginine132 (IDH1 R132), a key residue found in the enzyme's active site that when mutated, results in the loss-of-function in metabolizing isocitrate but confers a gain-of-function to produce the oncometabolite 2-hydroxyglutarate (2HG). This in effect defines IDH1 as an oncogene and provides an extraordinary opportunity to discover chemical probes against mutant IDH1 that may translate into much needed new therapies for glioma and AML patients.
This assay aims to perform a synthetic-lethal screen for chemical probes specific for 2HG-producing tumor cells using matched paired cell lines (1) HT-1080-NT fibrosarcoma cell line that overproduces 2HG and (2) HT-1080-IDH1KD cell line which has IDH1 expression knocked-down. Desirable compounds are toxic to the NT fibrosarcoma cell line but not to the IDH1KD cell line. The data in this AID corresponds to the results of the qHTS against the HT-1080 IDH1KD cell line.
[1] Dang L, Jin S, Su SM. IDH mutations in glioma and acute myeloid leukemia. Trends of Mol Med. 2010; 16(9): 387-97.
[2] Dang L et al. Cancer-associated IDH1 mutations produce 2-hydroxyglutarate. Nature. 2010; 465(7300):966.
Molecular Libraries Probe Production Centers Network [MLPCN]
NIH Chemical Genomics Center [NCGC]
Assay Submitter (PI): Lenny Dang Ph.D., Agios Pharmaceuticals
Suspensions of trypsinized HT-1080-IDH1KD cells were dispensed into white, tissue culture-treated, solid 1536-well plates at 5uL/well (750 cells/well final concentration) in RPMI medium supplemented with 5% FBS. Plates were incubated at 37 degrees C for 2 hours, after which 23 nL of compounds or DMSO were delivered to each well using a pin tool. Plates were then incubated at 37 degrees C for an additional 48 hours. CellTiter-Glo viability reagent (Promega) was dispensed into wells (2.5uL/well) and incubated at room temperature for 10 minutes. The plates were measured on a PerkinElmer ViewLux plate reader for luminescent signal (clear filter, 1 sec exp.). DMSO-treated control wells and media-only (no cells) control wells were used to normalize %Activity of identified toxic compounds; DMSO-treated wells corresponded to 0%Activity (100% viability), while media-only controls were used to normalize 100%Activity (0% viability). To minimize variability between cell lines, both HT-1080-NT and HT-1080-IDH1KD lines were dispensed and treated with identical compound series in single batches.
Concentration-response curves were fitted to the signals arising from the resulting luminescence. The concentration-effect curves were then classified based on curve quality (r2), response magnitude and degree of measured activity, and compounds were subsequently categorized based on their curve class.
Potency is the fitted concentration of half-maximal effect.

Structure (SMILES)	Potency	activity, negative = toxicity
Cc1ccc(Cl)cc1NC(=S)N/N=C/c1cccc2ccccc12	active: 2.59 µM	–
CC1CC(C)CN(CCCNC(=O)c2cc3c(s2)-c2ccccc2OC3)C1 (stereo unspecified)	active: 18.4 µM	–
NC(=O)c1cccc(-c2ccnc3c2CC(C(=O)NCCc2ccccc2)O3)c1 (stereo unspecified)	active: 7.31 µM	–
CCCNC1=C(N(C(C)=O)c2cccc(F)c2)C(=O)c2ccccc2C1=O	active: 4.61 µM	–
O=S1(=O)N[C@@H](Cc2ccccc2)COc2cc(N3CCC[C@H]3CO)ccc21	–	inactive: -17.1%
Cc1noc(NS(=O)(=O)c2ccc(N/C=C\C(=O)c3ccccc3)cc2)c1C	–	inactive: 0%
O=C1NC[C@@H](CCCCN2C[C@H](Cc3ccc(O)cc3)N(CCc3ccc(O)cc3)C(=O)C2=O)N(CC2CCCCC2)C1=O	–	inactive: 15.2%
CN(C)CC[C@@H](c1ccc(Br)cc1)c1ccccn1	–	inactive: -23%
COc1ccc(-c2nc3cnccn3c2NC2CCCCC2)cc1-c1cccc(Cl)c1	–	inactive: -20.6%
C/C=C/Cn1c(SCCCc2ccccc2)nc2c1c(=O)[nH]c(=O)n2C	–	inactive: -19.9%
Oc1ccc(C[C@@H]2CNCCN2CCCCC2CCCCC2)cc1	–	inactive: -15.7%
O=C1S/C(=C/c2ccc(N3CCOCC3)o2)C(=O)N1Cc1ccc(F)cc1	–	inactive: 8.78%
CCCCCCN1C[C@H](n2cc(-c3ccc(F)cc3)nn2)[C@@H](O)C[C@@H]1c1ccc(OC)cc1	–	inactive: -3.79%
COC(C/C=C/C(=O)[C@@H](C)OCc1ccccc1)OC	–	inactive: -22.5%
C[C@@H]1COc2cccc(N3CCC[C@@H]3CO)c2S(=O)(=O)N1	–	inactive: 1.81%
CCOC(=O)c1c(C)[nH]c(C(=O)OC/C(O)=C(\C#N)c2nc3ccccc3[nH]2)c1C	–	inactive: -17.8%
CCOc1cc(CNCCO)cc(Br)c1OCc1ccccc1Cl	active: 23.1 µM	–
C=CC[C@@H](CC(=O)N[C@H](CO)Cc1ccccc1)C(=O)N[C@@H](COC(=O)[C@@H](CC=C)Cc1ccc(F)cc1)Cc1c[nH]c2ccccc12	–	inactive: -8.77%
C=CC[C@@H](Cc1ccc(F)cc1)C(=O)OC[C@H]1CCCN1C(=O)[C@H](CC=C)CC(=O)N(CCO)Cc1ccccc1	–	inactive: -17.3%

Structure (SMILES)	Potency	activity, negative = toxicity
O=C1NC[C@H](c2ccccc2)OC(=O)[C@H](Cc2ccc(F)cc2)C/C=C\C[C@@H]1CC(=O)N(CCO)Cc1ccccc1	–	inactive: 0.0188%
O=C(NCc1ccccc1)C1=C[C@H](c2csc3ccccc23)C[C@H](OCCCCO)O1	–	inactive: -12.4%
Cn1ccnc1SCC(=O)c1ccc(Cl)cc1	–	inactive: 4.5%
O=C1N/C(=N/N=C/c2ccccc2O)SC1Cc1ccc(F)cc1 (stereo unspecified)	active: 23.1 µM	–
CCc1nn(CCCN2CCN(c3cccc(Cl)c3)CC2)c(=O)n1CCOc1ccccc1	–	inactive: -21%
O=C(Cn1c[n+](CC(=O)c2ccc([N+](=O)[O-])cc2)cn1)c1ccc([N+](=O)[O-])cc1	–	inactive: -3.05%
Oc1cc2c(cc1O)C1c3ccc(O)c(O)c3OCC1(O)C2 (stereo unspecified)	–	inactive: -28.5%
CN(C)CCC(c1ccc(Br)cc1)c1ccccn1 (stereo unspecified)	inactive	–
CCCN(CCC)CC(O)Cn1cc(/C=C/C(=O)c2ccccc2)c2ccccc21 (stereo unspecified)	active: 14.6 µM	–
C=CCOC(=O)C1=C[C@H](c2ccccc2)[C@@H](CCCO)[C@H](OCC)O1	–	inactive: 5.5%
C/C(N)=C(/C#N)C(=O)CSc1nnc(-c2ccc(OC(F)F)cc2)o1	–	inactive: -3.46%
CC(=O)Nc1nc(C)c(-c2csc(Nc3ccccn3)n2)s1	–	inactive: -23.9%
O=C(CSc1ncn[nH]1)N1N=C2/C(=C\c3ccco3)CCCC2C1c1ccco1 (stereo unspecified)	–	inactive: -2.39%
O=C(c1cc(Cl)cc(Cl)c1)N1CCC(=O)N(C(COCc2ccccc2)Cc2ccccc2)CC1 (stereo unspecified)	–	inactive: -24.2%
COc1cc([C@H]2Oc3cc([C@H]4Oc5cc(O)cc(O)c5C(=O)[C@@H]4O)ccc3O[C@@H]2CO)ccc1O	–	inactive: -13.4%
CCc1ccc(/C=C2/SC(=S)N(CCCC(=O)Nc3ccccc3C(=O)O)C2=O)cc1	–	inactive: 4.01%
CC(C)NC(=O)NC(=O)COC(=O)c1c2c(nc3ccccc13)CCC2	active: 25.9 µM	–
O=C1N[C@H](Cc2ccccc2)COC(=O)[C@H](Cc2ccc(F)cc2)CC/C=C/C[C@H]1CC(=O)N(CCO)Cc1ccccc1	–	inactive: -24%
COC(C/C=C\C(=O)[C@H](C)OCc1ccccc1)OC	–	inactive: -7.4%

Structure (SMILES)	Potency	activity, negative = toxicity
c1ccc(CN(CC2=NCCN2)c2ccccc2)cc1	–	inactive: -12.7%
OC[C@@H]1CN(Cc2cccc(C(F)(F)F)c2)C[C@H](n2cnc3c(NCc4ccc(F)cc4)ncnc32)O1	active: 20.6 µM	–
CC(C)C[C@H]1CNC(=S)N1CC1CCCN1C[C@H](CC(C)C)N1C[C@H](Cc2ccc(O)cc2)N(CC2CCCCC2)C1=S (stereo partly specified)	–	inactive: -23.6%
Cc1cc(NC(=O)CSc2nc(C(C)C)nc3ccccc23)no1	active: 16.4 µM	–
CC(C)(C)NC(=O)C(c1ccncc1)n1c(-c2ccc(C(F)(F)F)cc2)nc2ccccc21 (stereo unspecified)	active: 20.6 µM	–
CC(=O)SC1CC2=CC(=O)CCC2(C)C2CCC3(C)C(CCC34CCC(=O)O4)C12 (stereo unspecified)	–	inactive: -22.8%
C=CC[C@@H](CC(=O)N[C@H](CO)Cc1ccccc1)C(=O)NC[C@@H](OC(=O)[C@@H](CC=C)Cc1ccc(F)cc1)c1ccccc1	–	inactive: -5.76%
CC(C)[C@H](NC(=O)N1c2ccccc2NC(=O)[C@@H]1C(C)C)C(=O)N[C@H](C(=O)O)c1ccccc1	–	inactive: -6.01%
Cc1nc(N2CCN(C)CC2)c2c(C)c(C(=O)Nc3ccc(C)c(F)c3)sc2n1	active: 14.1 µM	–
CCO[C@H]1OC(C(=O)NCc2ccccc2)=C[C@@H](c2ccc(C(F)(F)F)cc2)[C@@H]1CCCO	–	inactive: -16.5%
O=C(CSc1cccc[n+]1[O-])Nc1ccccc1Oc1ccccc1	active: 6.51 µM	–
CN(C)/C=C1\C=C(c2ccccc2)OC1=O	–	inactive: 3.26%
CN(C)C(=O)Oc1cccc([N+](C)(C)C)c1	–	inactive: 2.79%
COc1ccc(C(CC(=O)c2ccc(C)cc2)C(C#N)C#N)cc1OC (stereo unspecified)	active: 23.1 µM	–
COC(=O)N[C@@H]1C[C@H]2[C@@H]3CC[C@H]4C[C@@H](OC)CC[C@]4(C)[C@H]3CC[C@]12C	–	inactive: -2.79%
CC1(C)OC2CC3C4CC(F)C5=CC(=O)C=CC5(C)C4(F)C(O)CC3(C)C2(C(=O)CO)O1 (stereo unspecified)	–	inactive: 34.9%
CCN1CCN(CCNC(=O)c2ccc3c(c2)N(Cc2ccc(F)cc2)C(=O)/C(=C/c2ccccc2)S3)CC1	active: 5.17 µM	–
CC1=CC(C)(C)Nc2ccccc21	–	inactive: 3.66%
